# Results as given in the supplement of paper PMC8728848.
# The other results are listed elsewhere or left out.
# B1: RfpB (Mycobacterium tuberculosum), O05594 (protein)
# chain: MAAGLVTASMSLSTAVAHAGPSPNWDAVAQCESGGNWAANTGNGKYGGLQFKPATWAAFGGVGNPAAASREQQIAVANRVLAEQGLDAWPTCGAASGLPIALWSKPAQGIKHAGPSPNWDAVAQCESGGNWAANTGNGKYGGLQFKPATWAAFGGVGNPAAASREQQIAVANRVLAEQGLDAWPTCGA
# Tests used:
# Assay in all cases: glycan array binding signal (z-score within array); higher = stronger binding
# Conditions in all cases: glycan notation: IUPAC condensed, linker removed
# [1] = biological target: Fuc(a1-2)[GalNAc(a1-3)]Gal(b1-4)Glc
# Outline: (§1)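 Negative Z-scores can be read as non-binding. The Z-score is calculated within each array and then averaged across arrays of one protein sequence at different concentrations or buffers and across linkers. Arrays, 3228 in all, were curated from the Consortium for Functional Glycomics database and kept only where the protein sequence was available.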
# [2] = biological target: Fuc(a1-2)[GalNAc(a1-3)]Gal(b1-4)GlcNAc
# Outline: as §1
# [3] = biological target: Fuc(a1-2)[GalNAc(a1-3)]Gal(b1-4)[Fuc(a1-3)]GlcNAc
# Outline: as §1
# [4] = biological target: Fuc(a1-2)[GalNAc(a1-4)]Gal(b1-4)GlcNAc
# Outline: as §1
# [5] = biological target: Fuc(a1-2)[GalNAc(b1-3)]Gal
# Outline: as §1
# Fuc(a1-3)GlcNAc = biological target: Fuc(a1-3)GlcNAc
# Outline: as §1
# [6] = biological target: Fuc(a1-3)[Gal(b1-4)]Glc6S
# Outline: as §1
# [7] = biological target: Fuc(a1-3)[Gal(b1-4)]GlcNAc
# Outline: as §1
# [8] = biological target: Fuc(a1-3)[Gal(b1-4)]GlcNAc(b1-3)Gal(b1-3)[Fuc(a1-4)]GlcNAc
# Outline: as §1
# [9] = biological target: Fuc(a1-3)[Gal(b1-4)]GlcNAc(b1-4)Gal(b1-4)[Fuc(a1-3)]GlcNAc
# Outline: as §1
# [10] = biological target: Fuc(a1-3)[Gal(b1-4)]GlcNAc(b1-4)Gal(b1-4)[Fuc(a1-3)]GlcNAc(b1-4)Gal(b1-4)[Fuc(a1-3)]GlcNAc
# Outline: as §1
# [11] = biological target: Fuc(a1-3)[Gal(b1-4)]GlcNAc6S
# Outline: as §1
# [12] = biological target: Fuc(a1-3)[Gal3S(b1-4)]Glc6S
# Outline: as §1
# [13] = biological target: Fuc(a1-3)[Gal3S(b1-4)]GlcNAc
# Outline: as §1
# [14] = biological target: Fuc(a1-3)[Gal3S(b1-4)]GlcNAc6S
# Outline: as §1
# [15] = biological target: Fuc(a1-3)[GalNAc(b1-4)]GlcNAc
# Outline: as §1
# Fuc(a1-4)GlcNAc = biological target: Fuc(a1-4)GlcNAc
# Outline: as §1
# Fuc(b1-3)GlcNAc = biological target: Fuc(b1-3)GlcNAc
# Outline: as §1
# Gal(a1-2)Gal = biological target: Gal(a1-2)Gal
# Outline: as §1
# Gal(a1-3)Gal = biological target: Gal(a1-3)Gal
# Outline: as §1
# Gal(a1-3)Gal(b1-3)GlcNAc = biological target: Gal(a1-3)Gal(b1-3)GlcNAc
# Outline: as §1
# Gal(a1-3)Gal(b1-4)Glc = biological target: Gal(a1-3)Gal(b1-4)Glc
# Outline: as §1
# Gal(a1-3)Gal(b1-4)GlcNAc = biological target: Gal(a1-3)Gal(b1-4)GlcNAc
# Outline: as §1
# [16] = biological target: Gal(a1-3)Gal(b1-4)[Fuc(a1-3)]GlcNAc
# Outline: as §1
# Gal(a1-3)GalNAc = biological target: Gal(a1-3)GalNAc
# Outline: as §1
# [17] = biological target: Gal(a1-3)[Gal(a1-4)]Gal(b1-4)GlcNAc
# Outline: as §1
# Gal(a1-4)Gal(b1-4)Glc = biological target: Gal(a1-4)Gal(b1-4)Glc
# Outline: as §1
# Gal(a1-4)Gal(b1-4)GlcNAc = biological target: Gal(a1-4)Gal(b1-4)GlcNAc
# Outline: as §1
# Gal(a1-4)GlcNAc = biological target: Gal(a1-4)GlcNAc
# Outline: as §1
# Gal(a1-6)Glc = biological target: Gal(a1-6)Glc
# Outline: as §1
# Gal(b1-2)Gal = biological target: Gal(b1-2)Gal
# Outline: as §1
# Gal(b1-3)Gal = biological target: Gal(b1-3)Gal
# Outline: as §1
# Gal(b1-3)Gal(b1-4)GlcNAc = biological target: Gal(b1-3)Gal(b1-4)GlcNAc
# Outline: as §1
# Gal(b1-3)GalNAc = biological target: Gal(b1-3)GalNAc
# Outline: as §1
# [18] = biological target: Gal(b1-3)GalNAc(b1-3)Gal(a1-4)Gal(b1-4)Glc
# Outline: as §1
# [19] = biological target: Gal(b1-3)GalNAc(b1-4)Gal(b1-4)Glc
# Outline: as §1
# [20] = biological target: Gal(b1-3)GalNAc(b1-4)[Neu5Ac(a2-3)]Gal(b1-4)Glc
# Outline: as §1
# Gal(b1-3)GlcNAc = biological target: Gal(b1-3)GlcNAc
# Outline: as §1
# [21] = biological target: Gal(b1-3)GlcNAc(b1-3)Gal(b1-3)GlcNAc
# Outline: as §1
# [22] = biological target: Gal(b1-3)GlcNAc(b1-3)Gal(b1-4)Glc
# Outline: as §1
# [23] = biological target: Gal(b1-3)GlcNAc(b1-3)Gal(b1-4)GlcNAc
# Outline: as §1
# [24] = biological target: Gal(b1-3)[Fuc(a1-4)]GlcNAc
# Outline: as §1
# [25] = biological target: Gal(b1-3)[Fuc(a1-4)]GlcNAc(b1-3)Gal(b1-3)[Fuc(a1-4)]GlcNAc
# Outline: as §1
# [26] = biological target: Gal(b1-3)[Fuc(a1-4)]GlcNAc(b1-3)Gal(b1-4)GlcNAc
# Outline: as §1
# [27] = biological target: Gal(b1-3)[Fuc(a1-4)]GlcNAc(b1-3)Gal(b1-4)[Fuc(a1-3)]GlcNAc
# Outline: as §1
binder,measurement,setting,value
B1,glycan array binding signal (z-score),[1],-0.175
same,glycan array binding signal (z-score),[2],-0.711
same,glycan array binding signal (z-score),[3],-0.686
same,glycan array binding signal (z-score),[4],0.593
same,glycan array binding signal (z-score),[5],0.213
same,glycan array binding signal (z-score),Fuc(a1-3)GlcNAc,0.071
same,glycan array binding signal (z-score),[6],0.452
same,glycan array binding signal (z-score),[7],-0.093
same,glycan array binding signal (z-score),[8],-0.065
same,glycan array binding signal (z-score),[9],1.25
same,glycan array binding signal (z-score),[10],0.15
same,glycan array binding signal (z-score),[11],-0.371
same,glycan array binding signal (z-score),[12],2.53
same,glycan array binding signal (z-score),[13],-0.263
same,glycan array binding signal (z-score),[14],0.11
same,glycan array binding signal (z-score),[15],-0.17
same,glycan array binding signal (z-score),Fuc(a1-4)GlcNAc,-0.442
same,glycan array binding signal (z-score),Fuc(b1-3)GlcNAc,-0.75
same,glycan array binding signal (z-score),Gal(a1-2)Gal,-0.546
same,glycan array binding signal (z-score),Gal(a1-3)Gal,-0.751
same,glycan array binding signal (z-score),Gal(a1-3)Gal(b1-3)GlcNAc,-0.569
same,glycan array binding signal (z-score),Gal(a1-3)Gal(b1-4)Glc,-0.404
same,glycan array binding signal (z-score),Gal(a1-3)Gal(b1-4)GlcNAc,-0.667
same,glycan array binding signal (z-score),[16],-0.218
same,glycan array binding signal (z-score),Gal(a1-3)GalNAc,-0.21
same,glycan array binding signal (z-score),[17],0.986
same,glycan array binding signal (z-score),Gal(a1-4)Gal(b1-4)Glc,-0.246
same,glycan array binding signal (z-score),Gal(a1-4)Gal(b1-4)GlcNAc,0.863
same,glycan array binding signal (z-score),Gal(a1-4)GlcNAc,1.87
same,glycan array binding signal (z-score),Gal(a1-6)Glc,-0.413
same,glycan array binding signal (z-score),Gal(b1-2)Gal,1.32
same,glycan array binding signal (z-score),Gal(b1-3)Gal,-0.386
same,glycan array binding signal (z-score),Gal(b1-3)Gal(b1-4)GlcNAc,-0.801
same,glycan array binding signal (z-score),Gal(b1-3)GalNAc,-0.202
same,glycan array binding signal (z-score),[18],-0.147
same,glycan array binding signal (z-score),[19],-0.633
same,glycan array binding signal (z-score),[20],-0.402
same,glycan array binding signal (z-score),Gal(b1-3)GlcNAc,-0.409
same,glycan array binding signal (z-score),[21],-0.528
same,glycan array binding signal (z-score),[22],-0.273
same,glycan array binding signal (z-score),[23],-0.624
same,glycan array binding signal (z-score),[24],-0.622
same,glycan array binding signal (z-score),[25],-0.599
same,glycan array binding signal (z-score),[26],-0.284
same,glycan array binding signal (z-score),[27],-0.244
